# Test results published in PubChem BioAssay AID894 (National Center for Advancing Translational Sciences (NCATS), 2007).
# About 6,500 (4.3%) of roughly 150,000 compounds were called active. This list was built around the results that the source calls inconclusive (neither active nor inactive); the mix of calls is not that of the screen. Calls follow the shape of the dose curve; as a rule, active = well fitted inhibition curve with a large enough effect (not every such curve was filed as active); inconclusive = small, poorly fitted or top-dose-only effect, or another doubt; inactive = no such curve, though single readings can be large or run the other way. No potency is given beside an inconclusive call; the fits are too rough.
# Biological target: 15-hydroxyprostaglandin dehydrogenase [NAD(+)] (Homo sapiens) (UniProt P15428)
# Experiment: qHTS Assay for Inhibitors of HPGD (15-Hydroxyprostaglandin Dehydrogenase)
# Settings: purified HPGD, NADH fluorescence kinetic, PGE2 substrate; activity change, negative = inhibition: stronger effect = lower value
# In short: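 NADH formation kinetics: reaction with 30 uM PGE2 and 1 mM NAD+ (final), 20 nM enzyme, Tris-HCl pH 8 with Tween 20, after 15 min compound preincubation at room temperature. Fluorescence change, last versus first of five reads.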
# % is scaled to controls: 0 for no effect and ±100 for the full control effect; potency is read from the fitted curve at half-maximal effect; tags tell the direction and shape of the fitted curve.
# Chain of UniProt P15428 (P15428 whole entry, looked up): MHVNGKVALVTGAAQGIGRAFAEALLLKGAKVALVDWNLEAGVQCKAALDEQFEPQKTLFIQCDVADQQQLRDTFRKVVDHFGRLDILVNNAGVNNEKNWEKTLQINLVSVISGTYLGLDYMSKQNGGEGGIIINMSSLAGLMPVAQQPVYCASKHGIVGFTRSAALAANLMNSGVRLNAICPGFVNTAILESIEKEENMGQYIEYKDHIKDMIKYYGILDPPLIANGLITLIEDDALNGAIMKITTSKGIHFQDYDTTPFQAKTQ
SMILES,"activity change, negative = inhibition",Potency
O=C1NC(=O)N(Cc2ccccc2Cl)C(=O)/C1=C/N1CCOCC1,inactive: -18.1%,–
CC(C)c1cc2c(c(O)c1O)[C@]1(C(=O)O)CCCC(C)(C)C1CC2 (stereo partly drawn),–,active: 3.16 µM
CCCCn1c(NC(=O)c2ccc(Br)o2)c(C(=O)OCC)c2nc3ccccc3nc21,–,"inconclusive [inhibitor, partial curve]"
O=C(CN1CCCCC1)c1ccc(OC(F)F)cc1,inactive: -3.46%,–
C=CCN1C(=O)/C(=C/c2ccc(N3CCOCC3)o2)C(=O)NC1=S,–,active: 28.2 µM
C=CCn1c(O)c(C=Nc2ccc(OC)cc2C)c(=O)[nH]c1=O,–,"inconclusive [inhibitor, single point]"
O=C1OC(c2cc(I)c(O)c(I)c2)(c2cc(I)c(O)c(I)c2)c2ccccc21,–,active: 11.2 µM
Cc1cc(C=C2C(=O)N(C)C(=S)N(C)C2=O)c(C)n1C1CCCC1,inactive: -12.6%,–
Cc1ccc(-n2c(C)cc(/C=C3/C(=O)NC(=O)N(Cc4ccco4)C3=O)c2C)cc1,–,"inconclusive [inhibitor, single point]"
CN(CCC(=O)O)C1=Nc2ccc(Cl)cc2C(c2ccccc2)=[N+]([O-])C1,inactive: -5.22%,–
COCCOC(=O)c1c(N)n(Cc2ccc(OC)cc2)c2nc3ccccc3nc12,–,"inconclusive [inhibitor, full curve]"
CC(=O)C1=C(O)[C@@H]2[C@@H]3c4c[nH]c5cccc(c45)C[C@@H]3C(C)(C)N2C1=O,inactive: -18.7%,–
Cc1cccc(N2C(=O)NC(=O)/C(=C\c3cccn3-c3ccc(Cl)cc3)C2=O)c1,–,"inconclusive [inhibitor, partial curve]"
CC(=O)OCC1=C(C(=O)O)N2C(=O)[C@@H](N)[C@@H]2SC1,inactive: -11.7%,–
Cc1cccn2c(=O)c3c(nc12)N1CCC(Cc2ccccc2)CC1C1(C3)C(=O)N(C)C(=O)N(C)C1=O (stereo not drawn),–,"inconclusive [inhibitor, partial curve]"
Cn1c2ccccc2c2c(C(=O)N3CCC4(CC3)OCCO4)cn(C3CCCCC3)c(=O)c21,–,"inconclusive [inhibitor, partial curve]"
CCN1CCN(Cc2ccccc2C)CC1,inactive: -7.25%,–
COc1ccc(CCNCc2ccc(OC)c(OC)c2OC)cc1,inactive: -5.13%,–
COCCCNC(=O)c1c(NC(=O)c2ccco2)n(Cc2ccccc2)c2nc3ccccc3nc12,–,"inconclusive [inhibitor, partial curve]"
Cc1ccc(NC(=S)NCC2CCCO2)cc1 (stereo not drawn),–,active: 25.1 µM
CCCCn1c(N)c(C(=O)NCc2cccs2)c2nc3ccccc3nc21,–,"inconclusive [inhibitor, partial curve]"
CNC(=O)Oc1ccc(-c2cn3cc(C)ccc3n2)cc1,–,"inconclusive [inhibitor, partial curve]"
Nc1c(C(=O)NCc2ccco2)c2nc3ccccc3nc2n1Cc1ccc(F)cc1,–,"inconclusive [inhibitor, partial curve]"
c1ccc(Cc2nn3c(Cn4cnc5ccccc54)nnc3s2)cc1,–,active: 7.08 µM

SMILES,"activity change, negative = inhibition",Potency
O=C1NC(=O)C2(Cc3ccccc3N3CCCC32)C(=O)N1c1cccc(Cl)c1 (stereo not drawn),inactive: -6.63%,–
c1cnc(N2CC3(CCNCC3)C2)nc1,–,"inconclusive [inhibitor, partial curve]"
Cc1nc2cnc(N3CCNCC3)nc2n(C)c1=O,–,"inconclusive [inhibitor, partial curve]"
COC(=O)c1sc2nc(SCc3cccc(F)c3)n(N)c(=O)c2c1C,–,"inconclusive [inhibitor, partial curve]"
CCSc1nnc([C@@H](N)Cc2ccccc2)o1,inactive: -9.27%,–
CC1(C)N([O-])[N+](=O)C1(C)Br (stereo not drawn),–,active: 31.6 µM
COc1cc2[nH]c(=O)n(-c3cccc(Cl)c3)c(=O)c2cc1OC,–,"inconclusive [inhibitor, partial curve]"
C=C1N2CCC(CC2)C1(O)c1ccc(C)c(C)c1 (stereo not drawn),inactive: -19.9%,–
CC[N+](CC)(CC)CC,inactive: -3.39%,–
CNC(=O)COC(=O)c1ccc(-c2nc3ccccc3s2)s1,–,"inconclusive [inhibitor, partial curve]"
O=C(c1csc2c1CCCCC2)N1CCC2(CC1)OCCO2,–,"inconclusive [inhibitor, partial curve]"
COc1cc2[nH]c(=O)n(-c3ccc(C)cc3)c(=O)c2cc1OC,–,"inconclusive [inhibitor, partial curve]"
OC12ONC(c3ccccn3)C1N1CCC2CC1 (stereo not drawn),inactive: -0.591%,–
O=C1NC(=O)N(Cc2ccccc2)C(=O)/C1=C\N1CCCc2ccccc21,–,"inconclusive [inhibitor, partial curve]"
CC(=O)Oc1c(C)cccc1C(=O)O,–,"inconclusive [inhibitor, partial curve]"
O=C(c1cc2nc(-c3ccccc3)cc(-c3ccccc3)n2n1)N1CCC2(CC1)OCCO2,–,"inconclusive [inhibitor, partial curve]"
CNC(C)[C@H](O)c1ccccc1 (stereo partly drawn),inactive: -2.39%,–
CCOP(=O)(OCC)C(NC(=O)c1cccc2ccccc12)C(Cl)(Cl)Cl (stereo not drawn),–,"inconclusive [inhibitor, partial curve]"
CC(=O)OC[C@H](N)C(=O)c1ccccc1,inactive: -2.34%,–
CN(C)NC(=O)CCC(=O)O,inactive: -4.96%,–
COC(=O)c1cc2c(s1)=NC=NP=2(N1CCOCC1)N1CCOCC1,–,"inconclusive [inhibitor, partial curve]"
COc1ccc(/C=C2/C(=O)N(Cc3ccco3)C(=O)N(C(C)C)C2=O)cc1,–,active: 22.4 µM
Cc1cccc(N2C(=O)NC(=O)/C(=C\c3cnn(-c4ccccc4)c3)C2=O)c1,–,active: 10 µM
c1csc(-c2nnc(Cc3cccc4ccccc34)o2)c1,–,active: 17.8 µM
